In all, about 43,000 compounds went through this assay and about 200 (0.47%) were called active. Inconclusive results (about 12%) are left out. Calls follow the shape of the dose curve; as a rule, active = well fitted cell-killing curve with a large enough effect; inconclusive = small, poorly fitted or top-dose-only effect, or effect the other way; inactive = flat fitted curve, though single readings scatter. The list shows a part of the results.
Assay: Cell viability qHTS assay in S16 Pmp22-F2sN cells; also: nearly all actives have a fitted effect of over 65% in size
Settings: S16 Pmp22-F2sN Schwann cells (luciferase reporters placed in the Pmp22 gene) viability, CellTiter-Glo, 24 h; series mostly up to 57.5 µM; activity change, negative = cytotoxicity: at the top concentration
Summary of the method: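 Seed 500-1,000 S16 Pmp22-F2sN cells per well in phenol-red-free DMEM with 10% heat-inactivated FBS; pin-add 23 nL compound; incubate 24 h at 37C; add CellTiter-Glo, wait 15 min protected from light; read luminescence.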
% is scaled to controls: 0 for no effect and ±100 for the full control effect.

SMILES	activity change, negative = cytotoxicity
CSc1ccc(CCNC(=O)C2=C(C)C(=O)OC23CCCCC3)cc1	inactive: 12.1%
Cc1cccc(N2CCN(C(=O)Cn3ncc4c3-c3cc(C)ccc3OC4)CC2C)c1 (stereo not given)	inactive: -1.93%
COC(=O)c1ccc(OCC2c3cc(OC)c(OC)cc3CCN2C(=O)c2ccccc2C)cc1 (stereo not given)	inactive: -1.92%
Cc1nc(N2CCCC2)c2c(C(=O)N3CCN(c4ccc(F)cc4)CC3)c(C)oc2n1	inactive: 3.16%
Cc1cc(C)c(NC(=O)CCN2C(=O)c3ccccc3Sc3ncccc32)c(C)c1	inactive: 0.484%
Cc1nc2cc(C(=O)NCCC3=CCCCC3)ccc2n1-c1ccc(Br)cc1	inactive: 5.92%
CCc1nn(CC(=O)NCC(C)c2ccccc2)c(=O)c2cc3occc3n12 (stereo not given)	inactive: -0.943%
CCOc1ccc(C(=O)NCc2nnnn2-c2ccc(C)c(C)c2)cc1OCC	inactive: 4.28%
CCOC(=O)CNC(=O)CSc1cn(CC(=O)N2CCCCCC2)c2ccccc12	inactive: 23.4%
CN(Cc1ccccc1)C(=O)C1CCN(S(=O)(=O)c2ccc3c(c2)oc(=O)n3C)CC1	inactive: 8.63%
O=C1COc2ccc(-c3cc(-c4ccc(Cl)cc4)c4c(n3)-c3ccccc3OC4)cc2N1	inactive: 14.1%
Cc1cccc(C(=O)Nc2nnc(S(=O)(=O)N(C)Cc3ccc(Cl)cc3)s2)c1	inactive: 2.56%
COC(=O)c1cc2c(cc1NC(=O)c1cnn(-c3ccccc3)c1-n1cccc1)OCO2	inactive: -0.0131%
CSc1nc(Nc2ccc(C)cc2C)cc(-c2ccccc2)n1	inactive: 12.6%
Cc1ccc2ncc(S(=O)(=O)c3ccccc3)c(N3CCCCC3C)c2c1 (stereo not given)	inactive: -20.3%
COc1ccc(C2=NC3(CCCCCC3)N(CC(=O)Nc3ccc(C)c(C)c3)C2=O)cc1	inactive: -20.5%
CCn1c(C)c(C)c2cc(C(=O)NCc3ccc(N(C)C)cc3)ccc21	inactive: 3.22%
COc1ccc(CNC(=O)CN(c2cc(C(F)(F)F)ccc2Cl)S(C)(=O)=O)cc1	inactive: 13.7%
Cc1ccc(C(=O)c2oc3ccccc3c2NC(=O)c2cc(-c3ccc(Cl)cc3)on2)cc1	inactive: -4.23%
COc1ccc(Cl)cc1NC(=O)Cn1ncc2c3ccccc3n(Cc3ccccc3)c2c1=O	inactive: 8.7%

SMILES	activity change, negative = cytotoxicity
CC(=O)c1cccc(NC(=O)c2sc(-n3nc(C)c(CCC(C)C)c3C)nc2C)c1	inactive: -25.7%
Cc1nc(-c2ccc(S(=O)(=O)N3CCN(c4cccc(Cl)c4)CC3)cc2)co1	inactive: 9.99%
COc1cc(NC(=O)Cn2c(=O)n(CC(=O)NCCc3ccc(OC)c(OC)c3)c(=O)c3sccc32)cc(OC)c1	inactive: -3.59%
CSc1ccc(CNC(=O)Cc2csc3ccccc23)cc1	inactive: 8.01%
CC(=O)NCCNc1nc2c(-c3cccc(C)c3)nnn2c2ccc(Cl)cc12	inactive: 6.69%
COc1ccc(N2CC(NC(=O)Cc3cccs3)CC2=O)cc1 (stereo not given)	inactive: 0.126%
COc1cccc(Nc2sc(C(=O)c3ccc4c(c3)OCO4)c(N)c2S(=O)(=O)c2ccccc2)c1	inactive: 16.7%
COc1ccc(-n2nnnc2C2CCN(S(=O)(=O)c3ccc(F)cc3Cl)CC2)cc1	inactive: 5.58%
CC(=O)Nc1ccc(S(=O)(=O)NCC2CCC(C(=O)NCc3ccccc3Cl)CC2)cc1 (stereo not given)	inactive: 1.14%
CCSc1nnc2c(n1)OC(c1ccc(OC)cc1OC)N(C(C)=O)c1ccccc1-2 (stereo not given)	inactive: 0.996%
Cc1ccc(C2=NC(c3ccc(F)cc3)=Nc3ccc(C)cc3N2)cc1	inactive: -7.46%
O=C(NC1CCCC1)c1cnn(-c2ccc(F)cc2F)c1C1CCNCC1	inactive: -5.7%
Cc1ccc(S(=O)(=O)N2CCN(Cc3ccccc3)CC2)c(C)c1NS(C)(=O)=O	inactive: -7.8%
COc1ccc(Cl)cc1NC(=O)CSc1nc2c([nH]c3ccccc32)c(=O)n1-c1ccccc1	inactive: 20.3%
Cc1cccc(Cn2c(=O)n(CCCCC(=O)NCc3ccc4c(c3)OCO4)c(=O)c3ccccc32)c1	inactive: -2.19%
CN(Cc1ccccc1)Cc1c(O)ccc2c(=O)c(-c3ccccc3)c(C(F)(F)F)oc12	inactive: -2.24%
Cc1ccc(NC(=O)CN2c3ccccc3S(=O)(=O)c3ccccc32)cc1F	inactive: 19.9%
CCN(C(=O)c1sc2cc(OC)ccc2c1Cl)c1ccccc1	inactive: -18.2%
COc1ccccc1OCCCCn1c(C2CC(=O)N(c3ccccc3Cl)C2)nc2ccccc21 (stereo not given)	inactive: -5.88%
Cc1ccc(NC(=O)/C(C#N)=C/c2ccccc2Cl)cc1C	inactive: -29.1%

SMILES	activity change, negative = cytotoxicity
CCN(CC)CCNC(=O)CN1C(=O)c2cccnc2Oc2ccc(C)cc21	inactive: -1.81%
COc1ccc(CCNC(=O)Cn2c(=O)n(-c3ccc(OC)c(OC)c3)c(=O)c3ccccc32)cc1OC	inactive: -8.79%
O=C(NCc1ccc(F)cc1)C1CCN(S(=O)(=O)c2ccc3c(c2)CCCN3C(=O)C2CCC2)CC1	inactive: -14.2%
CN(C)c1ccc(NC(=O)CSc2nc(-c3ccco3)cc(C(F)(F)F)n2)cc1	inactive: 12%
O=C(COc1ccccc1Cl)N(Cc1ccco1)Cc1ccco1	inactive: -2.08%
Cc1ccccc1C(=O)Oc1cc(-c2ccc3c(c2)OCO3)cc(=O)c2c(C)oc(C)c12	inactive: -18.6%
Cc1ccc(N2CCN(C(=O)c3ccc(Nc4nc5ccccc5n5nnnc45)cc3)CC2)c(C)c1	inactive: -24.4%
COc1ccccc1N1CCN(S(=O)(=O)c2c(C)sc3ncn(CC(=O)Nc4ccc(C(C)C)cc4)c(=O)c23)CC1	inactive: -2.94%
CC1CCN(CCCNC(=O)CN2C(=O)CSc3ccc(S(=O)(=O)N4CCC(C)CC4)cc32)CC1	inactive: -3.71%
Cc1ccc(Cl)cc1NC(=O)c1cc2c(=O)n3cccc(C)c3nc2n1C	inactive: 0.793%
Cc1ccc(S(=O)(=O)c2cnc(SCC(=O)Nc3ccccc3C(F)(F)F)[nH]c2=O)cc1C	inactive: -7.22%
O=C(NCc1ccc(F)cc1)c1cnc(N2CCOCC2)c2ccccc12	inactive: 3.04%
Cc1cc(C)cc(NC(=O)C2CCCN(c3cnccn3)C2)c1 (stereo not given)	inactive: -0.356%
CCOc1ccc(NC(=O)N2CCC(CN3CCC(C)CC3)CC2)cc1	inactive: -5.23%
COc1ccc(-c2cc(C(=O)NCCc3ccc(Cl)cc3)[nH]n2)cc1	inactive: 6.76%
Cc1ccccc1-c1nc2c3c(-c4ccccc4)c(-c4ccccc4)oc3ncn2n1	inactive: 16.1%
Cc1cccc(N2CCN(C(=O)COCc3cc(-c4ccc5c(c4)OCO5)on3)CC2)c1C	inactive: 2.35%
CCOC(=O)c1[nH]c2ccccc2c1NC(=O)c1cc(OC)cc(OC)c1	inactive: -0.175%
Cc1ccc(CNc2nc3c(c(=O)n(C)c(=O)n3C)n2Cc2ccc(Cl)cc2)cc1	inactive: 8.79%
Cc1ccc(CN(C(=O)c2ccc(F)cc2)c2ccccn2)o1	inactive: 11%

Reference: PubChem BioAssay AID1508642 (National Center for Advancing Translational Sciences (NCATS), 2021)
